# Results published in the RNAGym collection of RNA variant scans (doi:10.7554/elife.90254).
# The source gives no read counts; variants with many changes may rest on few reads.
# B1: OR4K15 (parent)
# chain: GUUAACGGUCAUAGGCCAUGGAAACUAGGAGCACCAUUUCGCUGCCAGUGAAGAAAUGAACAAAGAAAAUCUGGGCCAGGCAGGCAUCAAAAGAAAUAGUCUUGCGCUCAACCAGAAAGUCUGUAAUCAUUUUAAGGGUA
# Variants of: B1
# Experiment: self-cleavage, relative activity (ratio to wild type); higher = more cleavage; in vitro, sequencing; the parent is a self-cleaving ribozyme
row,Variant,self-cleavage
1,A82G C107U A110G,0.01
2,A90U A92G U132A,2.32
3,U49G A89G U120A,0.99
4,A52G A68G A92U U108C,0
5,U37C A47G U57C A111G A118G U122C,0.01
6,A95G U102C A111G,0
7,A24G A51U A69U A98G A118G,0.26
8,A59G A82U U87C A114U,0.02
9,G29U A36G A56G C85A A86G,0.88
10,U49C A67G A86G U87A A126G,0.95
11,A30G A135G U139A,1.56
12,A18C U37C U87C A91G,0.21
13,A64G U87C U103C,0.98
14,U49C A51G U72C A116G A129G,0.01
15,U9A A86C A98G U130C,0.31
16,U39C A47G A52G A117G,1.97
17,U37C G44U A55G U70C A78G,0.3
18,A11G A67G A78G,0.23
19,A55G C105U A125G A126G,0.01
20,C16A A51G A66G U103C U108C,0.02
21,U26G U43A U72G,0.16
22,U12C A30G A118G,0.44
23,U9C C17U U37C A54U,1.14
24,A23G C88U A89G,0.55

row,Variant,self-cleavage
1,C6U A30G A52G A60G U102C A114U,0.26
2,U9C A24U U38C A94U A117C U132C A134G,0.43
3,A5U C10A U19G A82G,0.48
4,A18U A64G A89G,1.18
5,U19A A67G A126G,0.19
6,U26A A27G A110G,0.2
7,A60G U102C A110G C128U,0.11
8,G31A G44A A129G,1.15
9,U39A A54U A94G U108A,0.01
10,A47G A69G U139A,0.55
11,U3A U9A A68G U108C U120A,0
12,U39C A60U A126G C128A U130C,1
13,U38A A118G A125G,0.13
14,A52G G58U U108C A114C,0.01
15,A11C A78G A94G,0.3
16,A55G A92G A118U,0.33
17,A52G A92U U127A,2
18,A64G C77A A117G,0.53
19,A36U U87C A116G,0.25
20,A30U A95G A129G U130C,1.53
21,U3A G20U G29A A47G A52G A92G A94U A98U,1.76
22,A13G A22G A24G A64G G106A A111G,0.04
23,A54G U97G U127C,2.1
24,C46U A47U A52U A92G U122A,1.48

row,Variant,self-cleavage
1,A67G A91G U120C,0.48
2,A27G A36G A126G U132C,1.02
3,A22G A51G U108C,0.02
4,U38C U87C U124C,0.99
5,A56U A66U U124C,0.36
6,A82U U102A A117G,0.39
7,A18G U19C A96U A111G,0.06
8,A22G U37C U57C G138A,0.11
9,A55G G79U U108C,0
10,A89U C107U A114G,0.01
11,G7A A24G A66U U97C A117G U120C,0.29
12,U49C A96G A116G,0.46
13,U37C A59U A140G,0.89
14,A69G U108C A118G,0.01
15,U39A A52U A64G U127C,0.9
16,A24U A30U G58A A59G A82G,0.73
17,A5G U12C U43A U57A,0.73
18,U38C A60G U103G A116G,0.01
19,A24G U39A U72C,0.13
20,U43A A51G A117G,1.21
21,A90G A126G U132G,0.44
22,A23U A69G A118G,1.72
23,A22G A23G U49A A54G A64G,1.27
24,A5G A62G A68G U132A,0.18

row,Variant,self-cleavage
1,U57A G75C A96G A98G U102C A116G U131C A140G,0.02
2,A60G A89G A135U,1.84
3,A56G A64G U87C,0.53
4,C6A U19C U100C,1.39
5,A13G A82G U122C,0.37
6,A5G U72C U102C,0.77
7,A94G A96G A111G,0.01
8,A33G A91G A114U,0
9,U43A A67G A94U U108C U120A,0
10,A18G A24C A82U A135U,0.2
11,U19C G44A U72A,0.24
12,A5G A23G A51G,0.65
13,A23U A24G A47G U72C,0
14,A4G A91G A126U,0.31
15,A30G U38C A95G,1.45
16,U9A A54G A64G C85U A114G,0.51
17,A11G G41A A56G A68G A140G,1.22
18,A47G A68U U132C,0.71
19,U9C U38C U139C,2.29
20,C42U U43C A91G U100C,0.68
21,A51G A62G A68G,0.65
22,A51U A111G U130C,0.03
23,U2A A86G U102A,1.24
24,U37C A52U G106A,0.01

row,Variant,self-cleavage
1,U19C A47U C71A,0.24
2,U38C U43C A94G,1.34
3,A18C A86G A126U,1.22
4,U37C A89G A91U U100C,2.67
5,U12A A86U U100C A111G,0
6,U19C A23G G73A U139C,0.28
7,U70A A94U U122G,2.97
8,A63G A68G G138A,1.55
9,A23G A52G A111G U132C,0.01
10,A24G A67U A78U,0.83
11,U9C A63G A67G A91G A126U,0.42
12,U3C A111G A140U,0.01
13,A54G U57G A60G A63G A98U A129U,0.6
14,U2C A13G A62U U139C,1.48
15,U2C U87C U102C,1.2
16,A52G A118G A126G,0.9
17,U43G A86U U102A U132C,0.92
18,U26C C46U A94G,1.49
19,A5G A47U A56G U87C,0.73
20,U43C A66G A96U,1.46
21,A47U A54G A63G A110G U127C,0.05
22,A54G U87C U120C,0.41
23,A52G A55U A64G A117G U122A U131A,2.05
24,A18G U57A U130A,0.34

row,Variant,self-cleavage
1,A69G C88U A95G A111U A114G A118U,0.01
2,A27G A118G G119U,1.12
3,A51U A54G A64G,0.7
4,A13G U72C A82U U102C U130C,0.7
5,U2C U3A U9C A47G,0.78
6,U49C A96G U102G,0.65
7,U122C U131C A135G,0.94
8,A24G A51G A62U U87C,1.35
9,A5G A86U A111G,0.09
10,A56G A116U A134G,0.15
11,A68G A86U U103A,0.84
12,A5G A13G U26C U37A A94G,0.81
13,A18U A59G A125G U127C,0.44
14,U38A A52G U97C U122G,1.42
15,A18C A47G U103C,0.41
16,U2C A62G A67G A86G,0.89
17,A59G A66G U131C,1.44
18,A24C U38C U49C A86G,0.72
19,U2C A55U A67G,1.5
20,U97C A116G U139C,0.56
21,U57C A60G U108C,0.01
22,A59G A78U A135G,0.46
23,U9C A114G U127C U131C,0.07
24,U39A U103C A118G A125U,0.58

row,Variant,self-cleavage
1,A69G A110G A117U,0.05
2,A13U A27G A118G,1.76
3,U9C A18G A54G C112U A118G U122C,0.01
4,A63G A78U U133A A135U,0.31
5,A64G U122C A135G,2.16
6,A68G A78G A117G,0.37
7,U3C U19C A36U A59G,0.58
8,U19C U103C A111G,0.03
9,A56G U72G U87C U103C A129G,0.04
10,U19C U39C U49C A63U A98G A116G U139C,0.36
11,U3A A54G A82G A92G U127A,0.18
12,A33G A111G U124C,0.02
13,A30G A69G U103G,0.03
14,A91G C121A A135U,2.47
15,A68G A116G U139C,0.97
16,A30G A114U G138A,0.09
17,A24U U39C U49C A55G A64G,1.54
18,A36U U37C A117U,0.76
19,U72A U100C U122G,0.46
20,A110U U122A C128U A129G,0.82
21,A23G G41A A59G U72A A89U U120C U139C,0.02
22,U38A A78U G106U A110G A140G,0.01
23,A36G U38C A86G U87C,1.09
